{
  "source": "the supplement of paper PMC8728848",
  "binders": {"B1": {"name": "rMpL (Macrolepiota procera) (protein)", "chain": "MSTQVSSGRTYKITNVIAGTVIDLSGEDNKSIIGYPYHSGKNQQWTFNWTGKAWTLRSASSGSYLGIEGTPAGGTRLVAVNDPFEWHIWRDEANENAFRIFVPFTNYNLDLSGYGDTTPGTPVQLWWTWEGLHQTWTIDRP"}},
  "experiment_in_all_cases": "glycan array binding signal (z-score within array); higher = stronger binding",
  "conditions_in_all_cases": "glycan notation: IUPAC condensed, linker removed",
  "key": {"[1]": {"molecular_target": "GalNAc(b1-3)Gal(a1-4)Gal(b1-4)GlcNAc(b1-3)Gal(b1-4)Glc", "in_short": "(§1)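 The binding signal is a Z-score computed within each array and averaged over linkers. Arrays of the same protein sequence at different concentrations or buffers were also averaged together. Data originate from 3228 arrays in the Consortium for Functional Glycomics database, kept only where the protein sequence was available.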"}, "[2]": {"molecular_target": "GalNAc(b1-3)Gal(a1-6)Gal(b1-4)Glc", "in_short": "as §1"}, "[3]": {"molecular_target": "GalNAc(b1-3)GalNAc", "in_short": "as §1"}, "[4]": {"molecular_target": "GalNAc(b1-3)GlcNAc", "in_short": "as §1"}, "[5]": {"molecular_target": "GalNAc(b1-4)Gal(b1-4)Glc", "in_short": "as §1"}, "[6]": {"molecular_target": "GalNAc(b1-4)GlcNAc", "in_short": "as §1"}, "[7]": {"molecular_target": "GalNAc(b1-4)GlcNAc(b1-2)Man", "in_short": "as §1"}, "[8]": {"molecular_target": "GalNAc(b1-4)GlcNAc(b1-2)Man(a1-3)[GalNAc(b1-4)GlcNAc(b1-2)Man(a1-6)]Man(b1-4)GlcNAc(b1-4)GlcNAc", "in_short": "as §1"}, "[9]": {"molecular_target": "GalNAc(b1-4)GlcNAc(b1-3)GalNAc(b1-4)GlcNAc", "in_short": "as §1"}, "[10]": {"molecular_target": "GalNAc(b1-4)GlcNAc6S", "in_short": "as §1"}, "[11]": {"molecular_target": "GalNAc(b1-6)GalNAc", "in_short": "as §1"}, "[12]": {"molecular_target": "GalNAc3S(b1-4)GlcNAc", "in_short": "as §1"}, "[13]": {"molecular_target": "GalNAc3S(b1-4)GlcNAc3S", "in_short": "as §1"}, "[14]": {"molecular_target": "GalNAc3S(b1-4)[Fuc(a1-3)]GlcNAc", "in_short": "as §1"}, "[15]": {"molecular_target": "GalNAc4S6S(b1-4)GlcNAc", "in_short": "as §1"}, "[16]": {"molecular_target": "GalNAc6S(b1-4)GlcNAc", "in_short": "as §1"}, "[17]": {"molecular_target": "Glc(a1-4)Glc", "in_short": "as §1"}, "[18]": {"molecular_target": "Glc(a1-4)Glc(a1-4)Glc(a1-4)Glc", "in_short": "as §1"}, "[19]": {"molecular_target": "Glc(a1-6)Glc(a1-6)Glc", "in_short": "as §1"}, "[20]": {"molecular_target": "Glc(a1-6)Glc(a1-6)Glc(a1-6)Glc", "in_short": "as §1"}, "[21]": {"molecular_target": "Glc(b1-4)Glc", "in_short": "as §1"}, "[22]": {"molecular_target": "Glc(b1-6)Glc", "in_short": "as §1"}, "[23]": {"molecular_target": "GlcA(b1-3)Gal", "in_short": "as §1"}, "[24]": {"molecular_target": "GlcA(b1-3)GlcNAc", "in_short": "as §1"}, "[25]": {"molecular_target": "GlcA(b1-6)Gal", "in_short": "as §1"}, "[26]": {"molecular_target": "GlcA3S(b1-3)Gal(b1-4)GlcNAc(b1-2)Man", "in_short": "as §1"}, "[27]": {"molecular_target": "GlcA3S(b1-3)Gal(b1-4)GlcNAc(b1-3)Gal(b1-4)Glc", "in_short": "as §1"}, "[28]": {"molecular_target": "GlcNAc(a1-3)Gal(b1-4)GlcNAc", "in_short": "as §1"}, "[29]": {"molecular_target": "GlcNAc(a1-4)Gal(b1-3)GlcNAc", "in_short": "as §1"}, "[30]": {"molecular_target": "GlcNAc(a1-4)Gal(b1-4)GalNAc", "in_short": "as §1"}, "[31]": {"molecular_target": "GlcNAc(a1-4)Gal(b1-4)GlcNAc", "in_short": "as §1"}, "[32]": {"molecular_target": "GlcNAc(a1-4)Gal(b1-4)GlcNAc(b1-3)Gal(b1-4)Glc", "in_short": "as §1"}, "[33]": {"molecular_target": "GlcNAc(a1-4)Gal(b1-4)GlcNAc(b1-3)Gal(b1-4)GlcNAc", "in_short": "as §1"}, "[34]": {"molecular_target": "GlcNAc(a1-4)Gal(b1-4)GlcNAc(b1-3)Gal(b1-4)GlcNAc(b1-3)Gal(b1-4)GlcNAc", "in_short": "as §1"}, "[35]": {"molecular_target": "GlcNAc(a1-4)Gal(b1-4)GlcNAc(b1-3)Gal(b1-4)[Fuc(a1-3)]GlcNAc(b1-3)Gal(b1-4)[Fuc(a1-3)]GlcNAc", "in_short": "as §1"}, "[36]": {"molecular_target": "GlcNAc(a1-6)Gal(b1-4)GlcNAc", "in_short": "as §1"}, "[37]": {"molecular_target": "GlcNAc(b1-2)Gal(b1-3)GalNAc", "in_short": "as §1"}, "[38]": {"molecular_target": "GlcNAc(b1-2)Man(a1-3)[GlcNAc(b1-2)Man(a1-6)]Man(b1-4)GlcNAc(b1-4)GlcNAc", "in_short": "as §1"}, "[39]": {"molecular_target": "GlcNAc(b1-2)Man(a1-3)[GlcNAc(b1-2)Man(a1-6)]Man(b1-4)GlcNAc(b1-4)[Fuc(a1-6)]GlcNAc", "in_short": "as §1"}, "[40]": {"molecular_target": "GlcNAc(b1-2)Man(a1-3)[GlcNAc(b1-4)][GlcNAc(b1-2)Man(a1-6)]Man(b1-4)GlcNAc(b1-4)GlcNAc", "in_short": "as §1"}, "[41]": {"molecular_target": "GlcNAc(b1-2)Man(a1-3)[GlcNAc(b1-4)][GlcNAc(b1-2)Man(a1-6)]Man(b1-4)GlcNAc(b1-4)[Fuc(a1-6)]GlcNAc", "in_short": "as §1"}, "[42]": {"molecular_target": "GlcNAc(b1-2)[GlcNAc(b1-4)]Man(a1-3)[GlcNAc(b1-2)Man(a1-6)]Man(b1-4)GlcNAc(b1-4)GlcNAc", "in_short": "as §1"}, "[43]": {"molecular_target": "GlcNAc(b1-2)[GlcNAc(b1-4)]Man(a1-3)[GlcNAc(b1-4)][GlcNAc(b1-2)Man(a1-6)]Man(b1-4)GlcNAc(b1-4)GlcNAc", "in_short": "as §1"}, "[44]": {"molecular_target": "GlcNAc(b1-2)[GlcNAc(b1-4)]Man(a1-3)[GlcNAc(b1-4)][GlcNAc(b1-2)[GlcNAc(b1-6)]Man(a1-6)]Man(b1-4)GlcNAc(b1-4)GlcNAc", "in_short": "as §1"}, "[45]": {"molecular_target": "GlcNAc(b1-2)[GlcNAc(b1-4)]Man(a1-3)[GlcNAc(b1-4)][GlcNAc(b1-2)[GlcNAc(b1-6)]Man(a1-6)]Man(b1-4)GlcNAc(b1-4)[Fuc(a1-6)]GlcNAc", "in_short": "as §1"}},
  "note": "The other results are listed elsewhere or left out.",
  "data": [
    {"binder": "B1", "values": [
      {"measurement": "glycan array binding signal (z-score)", "setting": "[1]", "result": -0.134},
      {"measurement": "glycan array binding signal (z-score)", "setting": "[2]", "result": -0.277},
      {"measurement": "glycan array binding signal (z-score)", "setting": "[3]", "result": -0.311},
      {"measurement": "glycan array binding signal (z-score)", "setting": "[4]", "result": 0.11},
      {"measurement": "glycan array binding signal (z-score)", "setting": "[5]", "result": -0.208},
      {"measurement": "glycan array binding signal (z-score)", "setting": "[6]", "result": 0.483},
      {"measurement": "glycan array binding signal (z-score)", "setting": "[7]", "result": 0.409},
      {"measurement": "glycan array binding signal (z-score)", "setting": "[8]", "result": 1.16},
      {"measurement": "glycan array binding signal (z-score)", "setting": "[9]", "result": 2.87},
      {"measurement": "glycan array binding signal (z-score)", "setting": "[10]", "result": -0.293},
      {"measurement": "glycan array binding signal (z-score)", "setting": "[11]", "result": -0.314},
      {"measurement": "glycan array binding signal (z-score)", "setting": "[12]", "result": -0.39},
      {"measurement": "glycan array binding signal (z-score)", "setting": "[13]", "result": -0.338},
      {"measurement": "glycan array binding signal (z-score)", "setting": "[14]", "result": -0.321},
      {"measurement": "glycan array binding signal (z-score)", "setting": "[15]", "result": -0.337},
      {"measurement": "glycan array binding signal (z-score)", "setting": "[16]", "result": -0.256},
      {"measurement": "glycan array binding signal (z-score)", "setting": "[17]", "result": -0.289},
      {"measurement": "glycan array binding signal (z-score)", "setting": "[18]", "result": -0.2},
      {"measurement": "glycan array binding signal (z-score)", "setting": "[19]", "result": -0.323},
      {"measurement": "glycan array binding signal (z-score)", "setting": "[20]", "result": -0.31},
      {"measurement": "glycan array binding signal (z-score)", "setting": "[21]", "result": -0.295},
      {"measurement": "glycan array binding signal (z-score)", "setting": "[22]", "result": -0.305},
      {"measurement": "glycan array binding signal (z-score)", "setting": "[23]", "result": -0.315},
      {"measurement": "glycan array binding signal (z-score)", "setting": "[24]", "result": -0.129},
      {"measurement": "glycan array binding signal (z-score)", "setting": "[25]", "result": 1.71},
      {"measurement": "glycan array binding signal (z-score)", "setting": "[26]", "result": -0.3},
      {"measurement": "glycan array binding signal (z-score)", "setting": "[27]", "result": -0.416},
      {"measurement": "glycan array binding signal (z-score)", "setting": "[28]", "result": -0.394},
      {"measurement": "glycan array binding signal (z-score)", "setting": "[29]", "result": -0.249},
      {"measurement": "glycan array binding signal (z-score)", "setting": "[30]", "result": -0.293},
      {"measurement": "glycan array binding signal (z-score)", "setting": "[31]", "result": -0.335},
      {"measurement": "glycan array binding signal (z-score)", "setting": "[32]", "result": -0.434},
      {"measurement": "glycan array binding signal (z-score)", "setting": "[33]", "result": -0.349},
      {"measurement": "glycan array binding signal (z-score)", "setting": "[34]", "result": -0.353},
      {"measurement": "glycan array binding signal (z-score)", "setting": "[35]", "result": -0.16},
      {"measurement": "glycan array binding signal (z-score)", "setting": "[36]", "result": 2.83},
      {"measurement": "glycan array binding signal (z-score)", "setting": "[37]", "result": -0.29},
      {"measurement": "glycan array binding signal (z-score)", "setting": "[38]", "result": -0.322},
      {"measurement": "glycan array binding signal (z-score)", "setting": "[39]", "result": -0.192},
      {"measurement": "glycan array binding signal (z-score)", "setting": "[40]", "result": -0.341},
      {"measurement": "glycan array binding signal (z-score)", "setting": "[41]", "result": -0.334},
      {"measurement": "glycan array binding signal (z-score)", "setting": "[42]", "result": -0.251},
      {"measurement": "glycan array binding signal (z-score)", "setting": "[43]", "result": -0.353},
      {"measurement": "glycan array binding signal (z-score)", "setting": "[44]", "result": -0.358},
      {"measurement": "glycan array binding signal (z-score)", "setting": "[45]", "result": -0.401}
    ]}
  ]
}
